Laboratory results reported in the supplement of paper PMC10037445.
The full ranking holds about 2,900 compounds; the median of “NF-kB SEAP reporter activity, fold change vs agonist alone” is about 0.99, and the highest 2% start at about 2.6. The list shows a part of the results.

How the values were obtained:
[1] = tested on: RAW-Dual; assay: NF-kB SEAP reporter activity, fold change vs agonist alone; cytotoxicity flag (confluency mask): not cytotoxic; higher = enhanced NF-kB activity
Outline: (§1)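 RAW-Dual macrophages were seeded in DMEM at 50,000 cells/well in 384-well plates, given 50 nL of library stock by pin tool, and given a PRR agonist 1 h later. Plates were held at 37 °C, 5% CO2 for 20 hours, after which supernatant was read for IRF by QuantiLuc luminescence and for NF-κB by QuantiBlue absorbance at 620 nm. Reporter activity is expressed as fold change over wells that received agonist alone. A well was called cytotoxic when IncuCyte confluency fell below 70% of agonist controls in both mask sets.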

[2] = tested on: RAW-Dual; assay: NF-kB SEAP reporter activity, fold change vs agonist alone; higher = enhanced NF-kB activity; conditions: library stock concentration (final ~1000-fold dilution): 10 mM
Outline: as §1

[3] = tested on: RAW-Dual; assay: NF-kB SEAP reporter activity, fold change vs agonist alone; cytotoxicity flag (confluency mask): cytotoxic (confluency <70% of control); higher = enhanced NF-kB activity
Outline: as §1

[4] = agonist: ODN 1826 (TLR9) 0.5 ug/mL
[5] = agonist: Pam2CSK4 (TLR2/6) 0.1 ug/mL
[6] = agonist: Pam3CSK4 (TLR2/1) 0.1 ug/mL
[7] = cytotoxicity flag (confluency mask): not cytotoxic, agonist: Imiquimod (TLR7) […]
[8] = cytotoxicity flag (confluency mask): not cytotoxic, agonist: MPLA (TLR4) […]
[9] = cytotoxicity flag (confluency mask): cytotoxic (confluency <70% of control), agonist: MPLA (TLR4) […]

COC1C(OC(=O)/C=C/C=C/C=C/C=C/C(=O)O)CCC2(CO2)C1C1(C)OC1CC=C(C)C (stereo unspecified) (library stock concentration (final ~1000-fold dilution): 10 mM)
NF-kB SEAP reporter activity ([1]; agonist: LPS (TLR4) 0.1 ug/mL): 1.03
NF-kB SEAP reporter activity [1, 4]: 0.846
NF-kB SEAP reporter activity [1, 5]: 0.819
NF-kB SEAP reporter activity [1, 6]: 0.688

COC1C(OC(=O)/C=C/C=C/C=C/C=C/C(=O)O)CCC2(CO2)C1C1(C)OC1CC=C(C)C (stereo unspecified)
NF-kB SEAP reporter activity [2, 7]: 0.99
NF-kB SEAP reporter activity [2, 8]: 1.11

C[C@H]1O[C@@H](O[C@H]2CC[C@@]3(C)[C@@H](CC[C@]4(C)[C@@H]3C=C[C@]35OC[C@@]6(CCC(C)(C)C[C@H]63)[C@H](O)C[C@]54C)[C@]2(C)CO)[C@H](O)[C@@H](O[C@@H]2O[C@H](CO)[C@@H](O)[C@H](O)[C@H]2O)[C@H]1O (library stock concentration (final ~1000-fold dilution): 10 mM)
NF-kB SEAP reporter activity ([3]; agonist: LPS (TLR4) 0.1 ug/mL): 0.316
NF-kB SEAP reporter activity [3, 4]: 0.274
NF-kB SEAP reporter activity [3, 5]: 0.104
NF-kB SEAP reporter activity [3, 6]: 0.197

C[C@H]1O[C@@H](O[C@H]2CC[C@@]3(C)[C@@H](CC[C@]4(C)[C@@H]3C=C[C@]35OC[C@@]6(CCC(C)(C)C[C@H]63)[C@H](O)C[C@]54C)[C@]2(C)CO)[C@H](O)[C@@H](O[C@@H]2O[C@H](CO)[C@@H](O)[C@H](O)[C@H]2O)[C@H]1O
NF-kB SEAP reporter activity ([2]; cytotoxicity flag (confluency mask): cytotoxic (confluency <70% of control), agonist: Imiquimod (TLR7) […]): 0.222
NF-kB SEAP reporter activity [2, 9]: 0.421

CN(C)c1ccc2c(c1)Sc1cc(N(C)C)ccc1N2 (library stock concentration (final ~1000-fold dilution): 10 mM)
NF-kB SEAP reporter activity ([1]; agonist: LPS (TLR4) 0.1 ug/mL): 2.18
NF-kB SEAP reporter activity [1, 4]: 0.242
NF-kB SEAP reporter activity [1, 5]: 0.844
NF-kB SEAP reporter activity [1, 6]: 1.42

CN(C)c1ccc2c(c1)Sc1cc(N(C)C)ccc1N2
NF-kB SEAP reporter activity [2, 7]: 1.44
NF-kB SEAP reporter activity [2, 8]: 2.01

CCCc1nc(C(C)(C)O)c(C(=O)O)n1Cc1ccc(-c2ccccc2-c2nnn[nH]2)cc1 (library stock concentration (final ~1000-fold dilution): 10 mM)
NF-kB SEAP reporter activity ([1]; agonist: LPS (TLR4) 0.1 ug/mL): 0.868
NF-kB SEAP reporter activity [1, 4]: 1.02
NF-kB SEAP reporter activity [1, 5]: 1.13
NF-kB SEAP reporter activity [1, 6]: 1.3

CCCc1nc(C(C)(C)O)c(C(=O)O)n1Cc1ccc(-c2ccccc2-c2nnn[nH]2)cc1
NF-kB SEAP reporter activity [2, 7]: 0.948
NF-kB SEAP reporter activity [2, 8]: 1.1

CC(C)(C)c1cc(O)ccc1O
NF-kB SEAP reporter activity [2, 7]: 0.56
NF-kB SEAP reporter activity [2, 8]: 0.821

CC(C)(C)c1cc(O)ccc1O (library stock concentration (final ~1000-fold dilution): 10 mM)
NF-kB SEAP reporter activity ([1]; agonist: LPS (TLR4) 0.1 ug/mL): 0.991
NF-kB SEAP reporter activity [1, 4]: 0.851
NF-kB SEAP reporter activity [1, 5]: 0.556
NF-kB SEAP reporter activity [1, 6]: 0.711

Nc1c(Br)cc(Br)cc1CNC1CCC(O)CC1 (stereo unspecified)
NF-kB SEAP reporter activity [2, 7]: 0.984
NF-kB SEAP reporter activity [2, 8]: 0.994

Nc1c(Br)cc(Br)cc1CNC1CCC(O)CC1 (stereo unspecified) (library stock concentration (final ~1000-fold dilution): 10 mM)
NF-kB SEAP reporter activity ([1]; agonist: LPS (TLR4) 0.1 ug/mL): 1.24
NF-kB SEAP reporter activity [1, 4]: 0.806
NF-kB SEAP reporter activity [1, 5]: 0.964
NF-kB SEAP reporter activity [1, 6]: 0.865

CS(=O)(=O)Nc1ccc([N+](=O)[O-])cc1OC1CCCCC1
NF-kB SEAP reporter activity [2, 7]: 0.998
NF-kB SEAP reporter activity [2, 8]: 1.12

CS(=O)(=O)Nc1ccc([N+](=O)[O-])cc1OC1CCCCC1 (library stock concentration (final ~1000-fold dilution): 10 mM)
NF-kB SEAP reporter activity ([1]; agonist: LPS (TLR4) 0.1 ug/mL): 1
NF-kB SEAP reporter activity [1, 4]: 1.08
NF-kB SEAP reporter activity [1, 5]: 0.959
NF-kB SEAP reporter activity [1, 6]: 0.803

N#Cc1ccc(Oc2ccc3c(c2)COB3O)cc1
NF-kB SEAP reporter activity [2, 8]: 1.4

N#Cc1ccc(Oc2ccc3c(c2)COB3O)cc1 (library stock concentration (final ~1000-fold dilution): 10 mM)
NF-kB SEAP reporter activity ([1]; agonist: LPS (TLR4) 0.1 ug/mL): 1.68
NF-kB SEAP reporter activity [1, 4]: 1.44
NF-kB SEAP reporter activity [1, 5]: 1.31
NF-kB SEAP reporter activity [1, 6]: 1.05

CC(N)C12CC3CC(CC(C3)C1)C2 (stereo unspecified) (library stock concentration (final ~1000-fold dilution): 10 mM)
NF-kB SEAP reporter activity ([1]; agonist: LPS (TLR4) 0.1 ug/mL): 1.16
NF-kB SEAP reporter activity [1, 4]: 0.839
NF-kB SEAP reporter activity [1, 5]: 1.01
NF-kB SEAP reporter activity [1, 6]: 1.05

CC(N)C12CC3CC(CC(C3)C1)C2 (stereo unspecified)
NF-kB SEAP reporter activity [2, 7]: 0.956
NF-kB SEAP reporter activity [2, 8]: 1.32

CCCCCCOC(=O)N=C(N)c1ccc(NCc2nc3cc(C(=O)N(CCC(=O)OCC)c4ccccn4)ccc3n2C)cc1 (library stock concentration (final ~1000-fold dilution): 10 mM)
NF-kB SEAP reporter activity ([1]; agonist: LPS (TLR4) 0.1 ug/mL): 1.86
NF-kB SEAP reporter activity [1, 4]: 1.02
NF-kB SEAP reporter activity [1, 5]: 0.968
NF-kB SEAP reporter activity [1, 6]: 1.37

CCCCCCOC(=O)N=C(N)c1ccc(NCc2nc3cc(C(=O)N(CCC(=O)OCC)c4ccccn4)ccc3n2C)cc1
NF-kB SEAP reporter activity [2, 7]: 1.55
NF-kB SEAP reporter activity [2, 8]: 1.47

Cl.NC(CO)C(=O)NNCc1ccc(O)c(O)c1O (stereo unspecified)
NF-kB SEAP reporter activity [2, 7]: 0.889
NF-kB SEAP reporter activity [2, 8]: 0.995

Cl.NC(CO)C(=O)NNCc1ccc(O)c(O)c1O (stereo unspecified) (library stock concentration (final ~1000-fold dilution): 10 mM)
NF-kB SEAP reporter activity ([1]; agonist: LPS (TLR4) 0.1 ug/mL): 1.07
NF-kB SEAP reporter activity [1, 4]: 1.04
NF-kB SEAP reporter activity [1, 5]: 0.944
NF-kB SEAP reporter activity [1, 6]: 1.08

O=C(NCC(=O)N1CCCC1)Nc1ccc2cnccc2c1 (library stock concentration (final ~1000-fold dilution): 10 mM)
NF-kB SEAP reporter activity ([1]; agonist: LPS (TLR4) 0.1 ug/mL): 0.941
NF-kB SEAP reporter activity [1, 4]: 0.914
NF-kB SEAP reporter activity [1, 5]: 1.13
NF-kB SEAP reporter activity [1, 6]: 0.761

O=C(NCC(=O)N1CCCC1)Nc1ccc2cnccc2c1
NF-kB SEAP reporter activity [2, 7]: 0.932
NF-kB SEAP reporter activity [2, 8]: 0.947

CC1CCC2C(C)(C)C3CC12CCC3(C)O (stereo unspecified)
NF-kB SEAP reporter activity [2, 9]: 1.15

CC1CCC2C(C)(C)C3CC12CCC3(C)O (stereo unspecified) (library stock concentration (final ~1000-fold dilution): 10 mM)
NF-kB SEAP reporter activity ([3]; agonist: LPS (TLR4) 0.1 ug/mL): 1.11
NF-kB SEAP reporter activity [3, 4]: 0.855
NF-kB SEAP reporter activity [3, 5]: 1.67
NF-kB SEAP reporter activity [3, 6]: 1.1
